Measured values reported in the supplement of paper PMC9151546.
Repeats are few or missing, and single values can be far off.

Legend:
CHO-K1 [1] = assay: micronucleus frequency (% of nucleated events); higher = more micronuclei (genotoxic)
CHO-K1 [2] = assay: hypodiploid nuclei frequency (% of nucleated events); higher = more hypodiploid events (aneugenic)
Procedure: (§1)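 Flow-cytometric in vitro micronucleus assay (Litron MicroFlow) in CHO-K1 cells in 96-well plates, 19 concentrations (4.5-200 µM, n=1 per concentration). Without S9, cells were exposed for 24 h and sampled at 48 h. With Aroclor 1254-induced rat liver S9, cells were exposed for 3-4 h and sampled at 27-28 h. Read-outs are %MN and %hypodiploid nuclei relative to nucleated events, and relative survival as the nuclei-to-bead ratio versus the 1% DMSO vehicle control (x100).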

CHO-K1 [3] = assay: relative survival (nuclei to bead ratio vs DMSO control) (% of vehicle control); higher = more surviving cells
Procedure: as §1
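For hypodiploid nuclei frequency (% of nucleated events) in this document: hypodiploid nuclei gated on a flow cytometer with 488 nm excitation after SYTOX Green staining, cultures at 37 °C, positive controls vinblastine without S9 and cyclophosphamide with S9.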
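For micronucleus frequency (% of nucleated events) in this document: cells lysed with nuclei stained by SYTOX Green, then micronucleus-gated events counted against nucleated events by flow cytometry with 488 nm excitation.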
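For relative survival (nuclei to bead ratio vs DMSO control) in this document: Lysed-cell nuclei stained with SYTOX Green and counted against counting beads by flow cytometry at 488 nm excitation, with vinblastine (no S9) and cyclophosphamide (plus S9) as positive controls.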

CC(C)C(=O)Nc1ccc([N+](=O)[O-])c(C(F)(F)F)c1 [Flutamide]
Details	hypodiploid nuclei frequency, CHO-K1 [2] [%]	micronucleus frequency, CHO-K1 [1] [%]	relative survival, CHO-K1 [3]
concentration: 4.5 (µM), S9 metabolic activation: with S9, exposure time: 3-4 hours	0.36	1.7	84.6
concentration: 4.5 (µM), S9 metabolic activation: without S9, exposure time: 24 hours	0.56	1.08	90.1
concentration: 5.63 (µM), S9 metabolic activation: with S9, exposure time: 3-4 hours	0.28	1.36	94.2
concentration: 5.63 (µM), S9 metabolic activation: without S9, exposure time: 24 hours	0.42	1.12	100
concentration: 7.04 (µM), S9 metabolic activation: with S9, exposure time: 3-4 hours	0.4	1.6	110
concentration: 7.04 (µM), S9 metabolic activation: without S9, exposure time: 24 hours	0.64	1.42	107
concentration: 8.8 (µM), S9 metabolic activation: with S9, exposure time: 3-4 hours	0.38	2.08	94.4
concentration: 8.8 (µM), S9 metabolic activation: without S9, exposure time: 24 hours	0.48	1.2	90.4
concentration: 11 (µM), S9 metabolic activation: with S9, exposure time: 3-4 hours	0.32	1.62	103
concentration: 11 (µM), S9 metabolic activation: without S9, exposure time: 24 hours	0.84	1.44	97
concentration: 13.7 (µM), S9 metabolic activation: with S9, exposure time: 3-4 hours	0.3	1.74	89.3
concentration: 13.7 (µM), S9 metabolic activation: without S9, exposure time: 24 hours	0.78	1.08	83.5
concentration: 17.2 (µM), S9 metabolic activation: with S9, exposure time: 3-4 hours	0.4	1.88	101
concentration: 17.2 (µM), S9 metabolic activation: without S9, exposure time: 24 hours	0.7	1.7	83.5
concentration: 21.5 (µM), S9 metabolic activation: with S9, exposure time: 3-4 hours	0.28	1.66	99.5
concentration: 21.5 (µM), S9 metabolic activation: without S9, exposure time: 24 hours	0.7	1.24	85
concentration: 26.8 (µM), S9 metabolic activation: with S9, exposure time: 3-4 hours	0.4	0.86	105
concentration: 26.8 (µM), S9 metabolic activation: without S9, exposure time: 24 hours	1.14	1.46	104
concentration: 33.6 (µM), S9 metabolic activation: with S9, exposure time: 3-4 hours	0.24	0.96	113
concentration: 33.6 (µM), S9 metabolic activation: without S9, exposure time: 24 hours	1.32	1.86	84.1
concentration: 41.9 (µM), S9 metabolic activation: with S9, exposure time: 3-4 hours	0.3	1.38	100
concentration: 41.9 (µM), S9 metabolic activation: without S9, exposure time: 24 hours	1.14	2.26	78.8
concentration: 52.4 (µM), S9 metabolic activation: with S9, exposure time: 3-4 hours	0.36	1.1	75.6
concentration: 52.4 (µM), S9 metabolic activation: without S9, exposure time: 24 hours	1.42	2.12	69.4
concentration: 65.5 (µM), S9 metabolic activation: with S9, exposure time: 3-4 hours	0.34	1.36	72.3
concentration: 65.5 (µM), S9 metabolic activation: without S9, exposure time: 24 hours	1.02	1.92	64.4
concentration: 81.9 (µM), S9 metabolic activation: with S9, exposure time: 3-4 hours	0.28	1.48	78.1
concentration: 81.9 (µM), S9 metabolic activation: without S9, exposure time: 24 hours	1.08	2.32	65.6
concentration: 102 (µM), S9 metabolic activation: with S9, exposure time: 3-4 hours	0.22	1.04	78
concentration: 102 (µM), S9 metabolic activation: without S9, exposure time: 24 hours	1.12	2.16	63.7
concentration: 128 (µM), S9 metabolic activation: with S9, exposure time: 3-4 hours	0.18	1.08	69.4
concentration: 128 (µM), S9 metabolic activation: without S9, exposure time: 24 hours	0.96	1.82	56.9
concentration: 160 (µM), S9 metabolic activation: with S9, exposure time: 3-4 hours	0.34	1.26	68.6
concentration: 160 (µM), S9 metabolic activation: without S9, exposure time: 24 hours	0.86	1.54	57.5
concentration: 200 (µM), S9 metabolic activation: with S9, exposure time: 3-4 hours	0.2	1.44	66.2
concentration: 200 (µM), S9 metabolic activation: without S9, exposure time: 24 hours	0.76	1.84	60.2
